Source: article PMC4336329 (PLoS ONE, 2015)
The campaign covered roughly 310,000 compounds. About 14,000 (4.5%) showed an effect of 50% or more. Effects have a minus sign here. The list shows a part of the results.

biological target: human ether-à-go-go-related gene (hERG) potassium channel (human, UniProt Q12809); test: primary screen, population patch clamp on CHO cells stably expressing hERG
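Note: peak tail current of the secondary pulse compared with the same well before compound.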

Chain of human ether-à-go-go-related gene (hERG) potassium channel (Q12809 whole entry, looked up): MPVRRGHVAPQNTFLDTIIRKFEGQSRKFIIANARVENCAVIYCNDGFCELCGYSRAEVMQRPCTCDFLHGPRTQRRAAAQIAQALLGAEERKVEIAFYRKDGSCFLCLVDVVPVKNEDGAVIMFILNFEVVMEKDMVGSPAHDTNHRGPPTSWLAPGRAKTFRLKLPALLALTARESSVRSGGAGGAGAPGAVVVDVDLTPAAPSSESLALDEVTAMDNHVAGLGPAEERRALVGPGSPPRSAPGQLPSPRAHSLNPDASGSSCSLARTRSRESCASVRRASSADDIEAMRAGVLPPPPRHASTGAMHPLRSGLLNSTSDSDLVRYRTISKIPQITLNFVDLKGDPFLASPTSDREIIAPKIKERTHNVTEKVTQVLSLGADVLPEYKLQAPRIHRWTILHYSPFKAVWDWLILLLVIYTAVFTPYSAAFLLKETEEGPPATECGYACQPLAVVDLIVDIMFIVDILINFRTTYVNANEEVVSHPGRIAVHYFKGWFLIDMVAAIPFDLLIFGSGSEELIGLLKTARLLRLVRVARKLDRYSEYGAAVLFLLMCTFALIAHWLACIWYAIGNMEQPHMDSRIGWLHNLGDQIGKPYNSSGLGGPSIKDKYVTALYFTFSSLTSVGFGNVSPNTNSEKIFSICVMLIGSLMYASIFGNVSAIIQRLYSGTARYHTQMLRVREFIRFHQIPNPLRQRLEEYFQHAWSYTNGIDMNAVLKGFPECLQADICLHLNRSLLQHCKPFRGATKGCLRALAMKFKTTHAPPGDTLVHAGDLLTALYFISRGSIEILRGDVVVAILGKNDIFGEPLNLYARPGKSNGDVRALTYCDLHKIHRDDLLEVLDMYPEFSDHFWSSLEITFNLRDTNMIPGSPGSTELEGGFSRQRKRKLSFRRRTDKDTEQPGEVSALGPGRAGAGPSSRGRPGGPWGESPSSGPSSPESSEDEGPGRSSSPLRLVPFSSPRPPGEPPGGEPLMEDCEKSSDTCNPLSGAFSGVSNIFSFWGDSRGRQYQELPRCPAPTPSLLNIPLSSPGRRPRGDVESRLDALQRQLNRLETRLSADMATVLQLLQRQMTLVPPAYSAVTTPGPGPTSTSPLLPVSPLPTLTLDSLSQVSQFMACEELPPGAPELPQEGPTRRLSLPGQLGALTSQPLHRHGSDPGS

| SMILES | hERG current change (%, negative = inhibition) at 10uM |
| --- | --- |
| COc1ccc(CCN2CN(S(=O)(=O)c3ccc(C)cc3)c3nc4ccccc4nc32)cc1OC | 5.58% |
| CSc1ccccc1OCc1cc(C(=O)N2CCN(C3CCCC3)C(=O)C2)no1 | -34.8% |
| Cc1ccc(O)c(N=Nc2ccccc2)n1 | 2.12% |
| COc1ccc(-c2nsc3c(SCc4ccccc4)ncnc23)cc1 | 0.87% |
| COc1ccc(S(=O)(=O)n2cccc2)cc1OC | 11.4% |
| Cc1cnn(-c2nc(-c3cccs3)cc(C(F)(F)F)n2)c1 | -21.9% |
| Cc1sc2ncnc(N3CCC(C(=O)Nc4nnc(SCc5ccccc5F)s4)CC3)c2c1C | 4.36% |
| Cc1cc(=O)nc2c3ccccc3n(CC(=O)Nc3ccccc3Br)n12 | -7.45% |
| COc1cccc(OCc2nc(-c3cccc([N+](=O)[O-])c3)no2)c1 | 19.7% |
| CCc1noc(C)c1C(=O)N1CCC(CCC(=O)Nc2cccc(OC)c2)CC1 | -9.53% |
| COc1ccc2c(c1)CCNC2Cc1ccc(OC)c(O)c1 (stereo not shown) | -23% |
| CS(=O)(=O)c1ccc2nc(NC(=O)c3ccccc3Br)sc2c1 | 4.15% |
| CCCSc1nnc2nc(C)cc(C)n12 | -8.87% |
| CCCC1=C(C(=O)OCC)C(c2ccco2)C(C#N)=C(N)O1 (stereo not shown) | 5.85% |
| NC(=O)CSc1oc(-c2ccco2)nc1S(=O)(=O)c1ccccc1 | 4.57% |
| CN1C(=O)/C(=C2\SC(=S)N(CCCCCC(=O)O)C2=O)c2ccccc21 | 9.23% |
| Cc1sc2nc(CN3CCOCC3)nc(N3CCN(S(=O)(=O)c4ccccc4)CC3)c2c1C | -41.6% |
| Cc1ccnc(NS(=O)(=O)c2ccc(NC(=O)Cc3ccccc3)cc2)n1 | 5.26% |
| CCOC(=O)c1c(C)[nH]c(C(=O)OCC(=O)NCCc2ccc(OCC)c(OCC)c2)c1C | 19.8% |
| CCOC(=O)c1c(NC(=S)NC)sc2c1CCCC2 | 18.3% |
| CCC(C)NC(=O)CN1C(=O)CSc2ccc(S(=O)(=O)N3CCCC3)cc21 (stereo not shown) | -1.43% |
| Cn1c(Cl)c(/C=N/OC(=O)c2ccc(Cl)cc2)c2ccccc21 | -5.13% |

| SMILES | hERG current change (%, negative = inhibition) at 10uM |
| --- | --- |
| Cc1cc(C)c(OCC(=O)Nc2ccc3c(c2)OCO3)cc1C | 5.91% |
| Cc1cc(O)ccc1NC(=S)NC(=O)c1cncc(Br)c1 | 20.6% |
| O=C(NNC1CC(=O)N(c2ccccc2)C1=O)c1ccccc1Cl (stereo not shown) | 14.6% |
| COc1ccc(N(CC(=O)NCc2ccccc2)C(=O)CCC(=O)Nc2cc(C)ccn2)c(OC)c1 | -46.9% |
| O=C(NC1CCCC1)C(c1ccccc1)N(Cc1ccc(F)cc1)C(=O)c1csnn1 (stereo not shown) | -43.6% |
| COc1ccc(C(=O)C2CCN(CC(=O)Nc3ccc(C)cc3)CC2)cc1 | -53.4% |
| CCC(C)c1ccc(NC(=O)COC(=O)C2=COCCO2)cc1 (stereo not shown) | -5.55% |
| C[C@@H]1NC(=O)[C@H](CCC(N)=O)NC(=O)c2cc([N+](=O)[O-])cc(I)c2NCC[C@@H](C(N)=O)NC1=O | 10.7% |
| C[C@@H]1NC(=O)[C@H](CCCN=C(N)N)NC(=O)c2cc([N+](=O)[O-])cc(I)c2NCCC[C@@H](C(N)=O)NC1=O | 12.2% |
| CCOc1ccc(C(=O)N2CCN(CC(=O)N3CCCC3)CC2)cc1OCC | -3.21% |
| CC(C)(C)n1nc2c(c1NC(=O)c1ccc(Br)cc1)CS(=O)C2 (stereo not shown) | -9.21% |
| O=C(NCc1nnc(SCC(=O)N2CCOCC2)o1)c1c(F)cccc1Cl | 4.85% |
| CCCN(Cc1nc(-c2ccc(Cl)cc2)no1)CC1CCCO1 (stereo not shown) | -8.15% |
| CCOC(=O)N1CCN(C(=O)CN(Cc2ccc(Cl)cc2)S(=O)(=O)c2ccccc2)CC1 | -70.1% |
| O=C(Cc1ccc([N+](=O)[O-])cc1)N/N=C/c1cccs1 | -11.7% |
| Cc1ccc(/C=C2/NC(=O)N(Cc3ccc(Br)cc3)C2=O)o1 | -0.242% |
| Cc1cc(=O)oc(C)c1C(=O)Nc1ccc2nsnc2c1 | 9.45% |
| O=c1c(-c2ccc(O)cc2)coc2c(C3O[C@H](CO)[C@@H](O)[C@H](O)[C@H]3O)c(O)ccc12 (stereo partly shown) | 32% |
| CCOC(=O)C(C)Sc1ccc2nnc(CCNS(=O)(=O)c3ccc(C)cc3)n2n1 (stereo not shown) | -42.1% |
| COCCCNc1nc2ccccc2nc1NS(=O)(=O)c1cccc(Cl)c1 | 25.7% |
| CCC(C)C(NC(=O)OCc1ccccc1)C(=O)OCN1C(=O)c2ccccc2C1=O (stereo not shown) | -2.01% |
| CS(=O)(=O)N(CC(=O)N1CCCCC1)c1cccc(F)c1 | 13% |

| SMILES | hERG current change (%, negative = inhibition) at 10uM |
| --- | --- |
| Cn1c(=O)[nH]c(=O)c2c1nc(N/N=C/C(Br)=C/c1ccccc1)n2CCO | 14.3% |
| CCc1ccc(CC)c(S(=O)(=O)Nc2ccc(C(=O)O)c(O)c2)c1 | 17.3% |
| Cc1cc(C(=O)NNC(=O)CCN2CCN(c3ccccc3)CC2)c2ccccc2n1 | 4.95% |
| CCCCc1cc(=O)oc2cc(C)cc(OC(C)C(=O)O)c12 (stereo not shown) | 18.8% |
| CCC(C)n1[nH]c(=O)cc1N (stereo not shown) | 19.5% |
| CCOC(=O)c1ccc(NC(=O)Nc2ccc(S(N)(=O)=O)cc2)cc1 | -1.88% |
| CCCCc1c(O)c2ccccc2[nH]c1=O | 0.685% |
| Cc1onc(-c2ccccc2)c1C(=O)N1CCN(c2ccccn2)CC1 | 4.01% |
| COc1ccc(/C=N/NC(=O)c2cc(C3CC3)[nH]n2)cc1OC | -10.2% |
| COc1ccc(Cn2c(/C=C/c3ccccc3)nc3ccccc32)cc1 | -15.9% |
| COc1ccccc1CCNC(=O)CSc1nnc2ccc(-c3ccncc3)nn12 | -24.9% |
| O=S(=O)(NCc1ccc2c(c1)OCO2)c1cccc2cccnc12 | -6.62% |
| O=C(CCCn1cnc([N+](=O)[O-])n1)Nc1cccc2ccccc12 | 5.62% |
| Cc1csc(=NC(=O)c2ccccc2)n1CCO | 19.5% |
| c1ccc(CN=C2NN=C(c3cc4ccccc4o3)CS2)cc1 | -16.3% |
| CCOc1ccc(-c2ccc(SCC(=O)N3CCN(c4ccccc4)CC3)nn2)cc1 | 1.96% |
| CCN(CC)S(=O)(=O)c1ccc(N2CCOCC2)c(NC(=O)c2cnccn2)c1 | -34.8% |
| CCN(CC)S(=O)(=O)c1cc(NC(=O)COC(=O)CCC(=O)c2ccc(F)cc2)ccc1C | -46.6% |
| CCOC(=O)c1c(C2CC2)csc1NC(=O)COC(=O)c1cnc(Cl)c(Cl)c1 | 4.99% |
| Br.CCN(CC)S(=O)(=O)c1cccc(C(=O)NN2Cc3ccccc3C2=N)c1 | -4.76% |
| CCOc1ccc(-n2c(SCC(=O)Nc3ccccc3CC)nc3n[nH]c(C)c3c2=N)cc1 | -22.5% |
| Cc1cccc(N(C(=O)c2sc(C)nc2C)C(C(=O)NCC2CCCO2)c2ccccc2)c1 (stereo not shown) | 1.39% |

| SMILES | hERG current change (%, negative = inhibition) at 10uM |
| --- | --- |
| COc1ccc(C)cc1NC(=O)CCCN1C(=O)C(c2ccccc2)Oc2cccnc21 (stereo not shown) | 2.21% |
| COc1ccc(OC)c(S(=O)(=O)N2CCCC(C(=O)NCCc3ccccc3)C2)c1 (stereo not shown) | -38.2% |
| Cc1ccc(NC(=O)COC(=O)CN2C(=O)c3ccccc3C2=O)cc1 | -7.65% |
| Clc1ccc(C2[C@H]3CN(Cc4cccnc4)[C@H](c4ccccc4)C34CC2(c2ccccc2)C4)cn1 (stereo partly shown) | 10.2% |
| C=CCn1c(=O)c2ccccc2n2c(SCC(=O)NC)nnc12 | -1.24% |
| CCOC(=O)N1CCN(C(=O)CCc2nc3sc4c(c3c(=O)[nH]2)CCCC4)CC1 | -0.935% |
| COCC1CCCN(C(=O)c2ccc3oc(C(C)C)nc3c2)C1 (stereo not shown) | -1.99% |
| O=C(C(=O)N1CCOCC1)c1cn(Cc2ccccc2Cl)c2ccccc12 | -1.64% |
| COc1cc(-c2cc(C(=O)N3CCN(c4ccccn4)CC3)c3ccccc3n2)cc(OC)c1OC | -31.5% |
| CNC(=O)CSc1nnc(-c2ccco2)n1-c1cccc(C)c1 | -4.75% |
| CC1(C)CC(NC(=O)c2ccc(Cl)c(Cl)c2)CC(C)(C)N1 | -15.2% |
| Oc1ccc(/C=N/n2c(-c3ccccc3)n[nH]c2=S)cc1Br | -6.71% |
| CCC(C)NC(=O)CNC(=O)Cn1c(C)cc2ccccc2c1=O (stereo not shown) | 8.18% |
| COc1ccccc1NC(=O)c1cccs1 | -16.6% |
| COCCn1c(SCC(=O)c2c(N)n(C)c(=O)n(C)c2=O)nc2ccccc21 | 16.2% |
| CC12CCC(C(N)=O)(c3nc4ccccc4nc31)C2(C)C (stereo not shown) | -4.08% |
| CC(=O)c1ccc(Nc2ccc([N+](=O)[O-])c3nonc23)cc1 | 10.3% |
| CC(C)(C)OC(=O)N1CCC(c2c(C(=O)NCC3CCN(C4CCCC4)C3)cnn2-c2ccccc2)CC1 (stereo not shown) | -35.8% |
| COc1cc(C(=O)NNC(=O)Cc2ccc(S(=O)(=O)N3CCOCC3)s2)cc(OC)c1OC | 14.4% |
